From PMC5700166
The entries are a selection whose mix differs from that of the whole data set. The list includes weakly bound sequences.

Each sequence was assayed against T1, GST-Dm-Relish (UniProt Q94527) (assay: protein-binding microarray (PBM)). Conditions: PBM: ~300 nM protein, 6 mM HEPES pH 7.8, 80 mM KCl, 0.5 mM EDTA, 0.5 mM EGTA, 6% glycerol, 35 ng/ul poly-dIdC, 1% milk, 1 h, room temperature; Ap Aiptasia and Nv Nematostella (sea anemones) / Co Capsaspora / Aq Amphimedon (sponge) / Dm Drosophila / Hu human; RHD is the Rel homology domain; high values mean tight binding; most listed sequences are background and not binding sites; double strand, one strand shown.
T1 sequence: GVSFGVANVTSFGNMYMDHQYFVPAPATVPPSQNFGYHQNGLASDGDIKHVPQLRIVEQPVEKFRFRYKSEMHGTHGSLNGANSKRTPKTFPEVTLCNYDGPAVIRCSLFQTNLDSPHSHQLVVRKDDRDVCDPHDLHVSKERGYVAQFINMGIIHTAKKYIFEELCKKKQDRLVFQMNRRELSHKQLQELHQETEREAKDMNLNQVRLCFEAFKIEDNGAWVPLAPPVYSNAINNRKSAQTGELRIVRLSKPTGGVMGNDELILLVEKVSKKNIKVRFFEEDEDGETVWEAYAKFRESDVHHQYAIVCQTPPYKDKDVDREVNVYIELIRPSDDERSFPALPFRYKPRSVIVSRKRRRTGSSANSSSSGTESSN

Sequence	binding signal [z-score]
CCGATTAACATCACGTACTCCCCTGATGTTAATCGGGTCTTGATTCGCTTGACGCTGCTG	4
CCGATTAACATCAGGGGAAACCATGATGTTAATCGGGTCTTGATTCGCTTGACGCTGCTG	6.18
CCGATTAACATCAGAGTCCCCCCTGATGTTAATCGGGTCTTGATTCGCTTGACGCTGCTG	5.14
CCGATTAACATCAAGTACGGGAATGATGTTAATCGGGTCTTGATTCGCTTGACGCTGCTG	0.738
CCGATTAACATCAGGAGTCTCCCTGATGTTAATCGGGTCTTGATTCGCTTGACGCTGCTG	0.485
CCGATTAACATCAAGAAATTTCCTGATGTTAATCGGGTCTTGATTCGCTTGACGCTGCTG	0.976
CCGATTAACATCAGGGGGAGATATGATGTTAATCGGGTCTTGATTCGCTTGACGCTGCTG	2.53
CCGATTAACATCAATATCCCCCCTGATGTTAATCGGGTCTTGATTCGCTTGACGCTGCTG	5.53
CCGATTAACATCAGGGGAATGCATGATGTTAATCGGGTCTTGATTCGCTTGACGCTGCTG	3.2
CCGATTAACATCACGGTACTTCCTGATGTTAATCGGGTCTTGATTCGCTTGACGCTGCTG	7.59
CCGATTAACATCAGGGGGGACCCTGATGTTAATCGGGTCTTGATTCGCTTGACGCTGCTG	6.14
CCGATTAACATCAGGGGGGACGATGATGTTAATCGGGTCTTGATTCGCTTGACGCTGCTG	3.77
CCGATTAACATCAGGGGAAAAACTGATGTTAATCGGGTCTTGATTCGCTTGACGCTGCTG	9.62
CCGATTAACATCACAGTTCCCCCTGATGTTAATCGGGTCTTGATTCGCTTGACGCTGCTG	3.79
CCGATTAACATCAGGGCAGCCCCTGATGTTAATCGGGTCTTGATTCGCTTGACGCTGCTG	4.16
CCGATTAACATCAGGGCAGTACCTGATGTTAATCGGGTCTTGATTCGCTTGACGCTGCTG	1.84
CCGATTAACATCAAATCTTCCCCTGATGTTAATCGGGTCTTGATTCGCTTGACGCTGCTG	4.74
CCGATTAACATCAAATTGGGAAATGATGTTAATCGGGTCTTGATTCGCTTGACGCTGCTG	0.456
CCGATTAACATCAGTAGTGGGGCTGATGTTAATCGGGTCTTGATTCGCTTGACGCTGCTG	0.449
CCGATTAACATCAGGAGAGCCCCTGATGTTAATCGGGTCTTGATTCGCTTGACGCTGCTG	2.24

Sequence	binding signal [z-score]
CCGATTAACATCAAGGAACCCCCTGATGTTAATCGGGTCTTGATTCGCTTGACGCTGCTG	10.4
CCGATTAACATCAATACCCCCCCTGATGTTAATCGGGTCTTGATTCGCTTGACGCTGCTG	5.66
CCGATTAACATCATTATGGGAAATGATGTTAATCGGGTCTTGATTCGCTTGACGCTGCTG	0.644
CCGATTAACATCAGGAAATTTCCTGATGTTAATCGGGTCTTGATTCGCTTGACGCTGCTG	1.75
CCGATTAACATCAAAAACTCCCCTGATGTTAATCGGGTCTTGATTCGCTTGACGCTGCTG	8.62
CCGATTAACATCAGGCACCCCCCTGATGTTAATCGGGTCTTGATTCGCTTGACGCTGCTG	5.16
CCGATTAACATCAAATCTTTCCCTGATGTTAATCGGGTCTTGATTCGCTTGACGCTGCTG	1.24
CCGATTAACATCAAAAATTACCATGATGTTAATCGGGTCTTGATTCGCTTGACGCTGCTG	3.14
CCGATTAACATCAGGGGGAGTGATGATGTTAATCGGGTCTTGATTCGCTTGACGCTGCTG	1.66
CCGATTAACATCACCCCATCCCCTGATGTTAATCGGGTCTTGATTCGCTTGACGCTGCTG	2.37
CCGATTAACATCATCAGGGGGGATGATGTTAATCGGGTCTTGATTCGCTTGACGCTGCTG	4.27
CCGATTAACATCAAAGTACCCCCTGATGTTAATCGGGTCTTGATTCGCTTGACGCTGCTG	4.39
CCGATTAACATCAGGGAGAACCCTGATGTTAATCGGGTCTTGATTCGCTTGACGCTGCTG	4.39
CCGATTAACATCAAAATTCCCGTTGATGTTAATCGGGTCTTGATTCGCTTGACGCTGCTG	5.57
CCGATTAACATCAATAAATACCCTGATGTTAATCGGGTCTTGATTCGCTTGACGCTGCTG	4.58
CCGATTAACATCAAGGGCATTCCTGATGTTAATCGGGTCTTGATTCGCTTGACGCTGCTG	2.4
CCGATTAACATCAAAACCCCCCCTGATGTTAATCGGGTCTTGATTCGCTTGACGCTGCTG	9.97
CCGATTAACATCAGGGATACACCTGATGTTAATCGGGTCTTGATTCGCTTGACGCTGCTG	2.76
CCGATTAACATCAGGGAAAGATATGATGTTAATCGGGTCTTGATTCGCTTGACGCTGCTG	0.539
CCGATTAACATCACGTAAGGGATTGATGTTAATCGGGTCTTGATTCGCTTGACGCTGCTG	0.699
